# In PubChem BioAssay AID504332 (National Center for Advancing Translational Sciences (NCATS), 2011):
# The campaign covered roughly 350,000 compounds. About 31,000 (8.9%) were called active. The inconclusive results got no clear call from the source; some entries with a clear call stand among them for comparison. Calls come from the whole dose curve; as a rule, active = well fitted inhibition curve with a large enough effect; inconclusive = small, poorly fitted or top-dose-only effect; inactive = no such curve, though single readings can be large or run the other way. Potencies of inconclusive entries are doubtful fits and often do not repeat.
# Biological target: Histone-lysine N-methyltransferase EHMT2 (Homo sapiens) (UniProt Q96KQ7)
# Assay: qHTS Assay for Inhibitors of Histone Lysine Methyltransferase G9a; note: nearly all actives have a fitted effect of over 75% in size
# Settings: G9a H3K9 monomethylation, AlphaScreen, 2 h; activity, negative = inhibition: at 59 µM (top of the series) unless noted
# In short: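 Compounds were preincubated with 20 nM G9a for 15 min, after which biotinylated H3K9 peptide (500 nM) and SAM (20 uM) started a 2 h room-temperature reaction. Monomethylated product was quantified by antibody-based AlphaScreen chemiluminescence.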
# % is set by controls: 0 for no effect and ±100 for the full control effect; potency is the fitted concentration of half-maximal effect; tags give direction and shape of the fitted curve.
# Sequence of UniProt Q96KQ7 (Q96KQ7 whole entry, looked up): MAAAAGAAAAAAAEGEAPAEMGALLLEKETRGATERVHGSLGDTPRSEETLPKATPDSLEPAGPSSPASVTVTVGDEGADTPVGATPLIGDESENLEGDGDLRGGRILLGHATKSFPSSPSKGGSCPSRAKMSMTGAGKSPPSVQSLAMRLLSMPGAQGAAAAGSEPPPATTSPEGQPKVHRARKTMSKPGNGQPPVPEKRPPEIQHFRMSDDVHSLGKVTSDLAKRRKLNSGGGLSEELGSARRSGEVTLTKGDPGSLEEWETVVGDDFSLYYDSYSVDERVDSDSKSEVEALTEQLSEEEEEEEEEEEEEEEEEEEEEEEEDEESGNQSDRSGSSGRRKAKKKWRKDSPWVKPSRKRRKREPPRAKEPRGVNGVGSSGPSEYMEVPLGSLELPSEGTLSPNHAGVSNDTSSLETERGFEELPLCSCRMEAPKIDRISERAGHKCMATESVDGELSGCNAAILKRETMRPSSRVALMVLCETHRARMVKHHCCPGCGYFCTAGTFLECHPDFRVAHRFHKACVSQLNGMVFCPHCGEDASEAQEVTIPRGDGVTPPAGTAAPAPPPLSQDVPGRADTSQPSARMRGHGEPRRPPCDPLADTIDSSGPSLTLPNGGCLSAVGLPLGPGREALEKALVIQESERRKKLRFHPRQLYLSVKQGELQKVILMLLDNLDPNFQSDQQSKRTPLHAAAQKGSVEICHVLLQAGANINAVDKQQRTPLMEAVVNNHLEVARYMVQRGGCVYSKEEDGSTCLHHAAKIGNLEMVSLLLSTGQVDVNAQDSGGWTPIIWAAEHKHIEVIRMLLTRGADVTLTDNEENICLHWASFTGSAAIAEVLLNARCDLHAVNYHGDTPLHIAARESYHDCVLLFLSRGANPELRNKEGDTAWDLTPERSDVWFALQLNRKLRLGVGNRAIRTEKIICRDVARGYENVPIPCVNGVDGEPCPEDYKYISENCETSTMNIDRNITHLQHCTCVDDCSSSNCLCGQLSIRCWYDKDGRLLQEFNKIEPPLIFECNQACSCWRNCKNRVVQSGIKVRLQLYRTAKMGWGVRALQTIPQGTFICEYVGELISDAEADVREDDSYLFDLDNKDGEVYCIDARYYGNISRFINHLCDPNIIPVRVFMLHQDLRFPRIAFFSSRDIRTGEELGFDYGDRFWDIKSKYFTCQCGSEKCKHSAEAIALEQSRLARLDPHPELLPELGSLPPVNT
SMILES,"activity, negative = inhibition",Potency
N#C/C(=C\c1c(Cl)cccc1Cl)c1nc2ccccc2o1,inactive: -7.03%,
Cc1ccc(C)c(N=Cc2ccc(-c3ccc([N+](=O)[O-])cc3)o2)c1,,active: 35.5 µM
O=C(c1cccc(F)c1)N1CCN(c2ccc([N+](=O)[O-])c3cccnc23)CC1,,"inconclusive: 44.7 µM [inhibitor, partial curve, poor fit]"
COc1ccc(N2C(=O)CC(N3CCN(c4ccc(S(C)(=O)=O)cc4)CC3)C2=O)cc1 (stereo unspecified),,active: 31.6 µM
COc1cccc2sc(NN)nc12,,active: 31.6 µM
COc1ccc(NC(=O)CSc2nccn2-c2ccccc2)c(OC)c1,inconclusive: -66% [inhibitor],
O=C(Cc1ccc(-n2cccc2)cc1)N1CCN(c2ccccc2F)CC1,,active: 50.1 µM
COc1cc(/C=N/NC(=O)CCN2CCCCC2)ccc1O,inconclusive: -62% [inhibitor],
CNC(=O)c1c(NC(=O)c2ccc(S(=O)(=O)N3CCCC3)cc2)sc2c1CCN(C(C)C)C2,,"inconclusive: 89.1 µM [inhibitor, single point]"
Cc1ccc(NC(=S)N(Cc2ccco2)C2CCN(C(C)C)CC2)cc1,inactive: -5.78%,
COc1ccc(-c2cc(OC)c3c(C)oc(C)c3c(=O)c2)cc1OC,,"inconclusive: 39.8 µM [inhibitor, partial curve, poor fit]"
Cc1cc(N2C(=O)C(O)=C(C(=O)c3ccc(C)o3)C2c2ccc([N+](=O)[O-])cc2)no1 (stereo unspecified),,active: 44.7 µM
CN(C)c1ccc(N=Cc2nc(-c3ccccc3)oc2O)cc1,inactive: -11.5% [at 0.0925 µM],
O=C(COc1ccc(Cl)cc1)NCc1nnc(SCC(=O)NC2CCCC2)o1,inactive: 4.02%,
CCOc1ccc(CNC(=O)c2cnc3sc(N(CC)CC)nn3c2=O)cc1,inactive: -0.413%,
CCC1Sc2ccccc2N(CC(=O)NC2CCCCC2)C1=O (stereo unspecified),,"inconclusive: 6.31 µM [inhibitor, single point]"
Cc1cc(N)n(-c2ccc(C)c(C)c2)n1,,"inconclusive: 31.6 µM [inhibitor, partial curve, poor fit]"
Cc1cc(NC(=O)CSc2nnc(C(C)N(C)C)n2-c2ccc(F)cc2)no1 (stereo unspecified),,"inconclusive: 56.2 µM [inhibitor, partial curve, poor fit]"

SMILES,"activity, negative = inhibition",Potency
COc1cccc2c1-c1c(C(=O)O)cccc1C2=O,,"inconclusive: 100 µM [inhibitor, single point]"
CCOc1ccc(-n2ccnc2SCC(=O)Nc2ccc3c(c2)OCO3)cc1,,"inconclusive: 25.1 µM [inhibitor, single point]"
CN(C)S(=O)(=O)c1ccc(NC(=O)COc2ncnc3c2cnn3-c2ccccc2)cc1,,"inconclusive: 70.8 µM [inhibitor, single point]"
O=C(OCC(=O)N1CCN(c2ccccc2)CC1)c1ccc[n+]([O-])c1,,"inconclusive: 50.1 µM [inhibitor, partial curve, poor fit]"
CCCOc1cccc(C(=O)N2CCN(C(=O)C3CCCO3)CC2)c1 (stereo unspecified),,"inconclusive: 25.1 µM [inhibitor, partial curve, poor fit]"
CCOC(=O)CCCN1C(=O)CCn2nc(-c3cn(C)c4ccccc34)cc21,inactive: 4.18%,
CCOC(=O)C1(CCOc2ccccc2)CCN(Cc2cc(OC)ccc2OC)CC1,,"inconclusive: 79.4 µM [inhibitor, single point]"
O=C(Cn1cc(S(=O)(=O)Cc2ccccc2F)c2ccccc21)N1CCOCC1,,active: 22.4 µM
O=C1/C(=C/c2ccc(O)cc2)COc2ccccc21,,"inconclusive: 89.1 µM [inhibitor, single point]"
CCOC(=O)CCC(NC(=O)CCCCC(=O)NC(CCC(=O)OCC)C(=O)OCC)C(=O)OCC (stereo unspecified),inactive: 1.64%,
Cc1csc(NC(=O)c2ccc3nc[nH]c3c2)n1,inactive: 21.1% [at 102 µM],
O=C1CCN(Cc2ccccc2)CCN1[C@H](CSc1ccccc1)c1ccccc1,,"inconclusive: 89.1 µM [inhibitor, single point]"
CCc1ccc(C2CC(c3ccccc3)Nc3nc(N)nn32)cc1 (stereo unspecified),inactive: 5.96% [at 102 µM],
CCCCCn1c(=O)[nH]c2cc(C(=O)N3CCN(c4cccc(OC)c4)CC3)ccc2c1=O,inactive: -5.46%,
O=Cc1c(NCCc2ccc(F)cc2)c2ccccc2[nH]c1=O,inactive: -0.606% [at 102 µM],
N#Cc1nc(-c2ccc(OCc3ccccc3)cc2)oc1N1CCOCC1,,"inconclusive: 3.98 µM [inhibitor, partial curve, poor fit]"
O=C(Nc1cccc2nsnc12)c1cccnc1,,"inconclusive: 31.6 µM [inhibitor, single point]"
O=C(COc1ccc2oc(-c3ccccc3)cc(=O)c2c1)NCc1ccco1,inactive: 12.3% [at 12.7 µM],
